Test results from PubChem BioAssay (NCATS).
Values joined by “and” are separate entries in the source; they are usually repeats but may differ in a detail not shown here. Identical values can stand only once. The list shows a part of the results. Shown are side measurements of this screen, not its main read-out; they come without a call. For some assays here: Most of these compounds were active or inconclusive in the main read-out, so they are no random draw. For some assays here: Words in brackets tell the shape of the fitted curve; partial curves, single points and poor fits give uncertain potencies.

What was measured:
[1] = qHTS drug screen for cell cycle checkpoint inhibitors in PARPi-resistant BRCA-mutant ovarian cancer cell lines. (AID 1963452); conditions: PEO1/OlaR viability, CellTiter-Glo luminescence, 96 h
Outline: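 PEO1, PEO4 and PEO1/OlaR ovarian cancer cells, 600 per well, exposed 96 h at 37C to a dilution series. Viability read by CellTiter-Glo luminescence, normalized to DMSO and empty wells; activity summarized as Z-AUC.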

[2] = qHTS for identification of novel therapeutic agents for treatment of microphthalmiaassociated transcription factor (MiT) renal cell carcinoma (RCC) (AID 1963991); conditions: CellTiter-Glo, 48 h; for z-score: stronger effect = lower value
Outline: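 Curves over 11 concentrations were fitted to CellTiter-Glo luminescence, scaled between empty wells (0%) and DMSO (100%) viability. Cells were UOK109, UOK124 and UOK145 TFE3-fusion RCC lines at 500/well, exposed 48 hours at 37 C.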

[3] = qHTS assay for small molecule antagonists of peroxisome proliferator-activated receptor gamma signaling (AID 588537); conditions: HEK293 PPARg-UAS-bla, beta-lactamase ratio, antagonist mode; measured here: W460 blue channel
Outline: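 Read-out: CCF4 fluorescence (ex 405, em 460/530 nm) after 2 h at RT. Cells were HEK293 carrying a UAS-bla reporter and treated 16 h at 37 C with compound plus rosiglitazone (50 nM final). Normalized to rosiglitazone and DMSO.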

[4] = qHTS assay for small molecule agonists of retinoid X receptor alpha signaling (AID 588544); conditions: HEK293T RXRa-UAS-bla, beta-lactamase reporter, 18 h; 530 nm emission
[5] = TFE3-RCC UOK109 viability, measured here: UOK109 Z-AUC
[6] = TFE3-RCC viability, measured here: UOK124 Z-AUC
[7] = TFE3-RCC viability, measured here: UOK124 cell viability
[8] = TFE3-RCC viability, measured here: UOK145 Z-AUC
[9] = TFE3-RCC viability, measured here: UOK145 cell viability
[10] = measured here: PEO1 parental viability
Tags describe the fitted curve by direction and shape.

Row | Structure (SMILES) | AC50 ([1]; measured here: PEO4 viability) | z-score [2, 5] | z-score [2, 6] | AC50 [2, 7] | z-score [2, 8] | AC50 [2, 9] | AC50 [1, 10] | AC50 [3] | max response [4]
1 | O=C(NCc1ccncc1)C12C[C@H]3C[C@@H](C1)CC(c1ccc(Cl)cc1)(C3)C2 | 17.4 µM [falling, single point] | -0.011 | -2.57 | 16.6 µM [falling, partial curve] | 0.614 | 33.2 µM [falling, single point] |  |  | 
2 | COCCNCCCn1c(C(=O)CF)c(-c2ccc(C)cc2)c2c(N)ncnc21 |  | -0.0374 | -0.145 | 16.6 µM [falling, partial curve] | 0.643 | 20.9 µM [falling, partial curve, poor fit] | 27.5 µM [falling, single point] |  | 
3 | CN(C)CCN1C(=O)c2cccc3cc(N)cc(c23)C1=O |  | -0.397 | -0.123 | 3.72 µM [falling, full curve] | -0.447 | 3.32 µM [falling, full curve] | 17.4 µM [falling, partial curve] |  | 
4 | O=C1CN2Cc3c(ccc(Cl)c3Cl)N=C2N1 | 0.0087 µM [rising, full curve, poor fit] | 0.884 | 0.65 | 18.7 µM [falling, partial curve] | 0.355 | 29.6 µM [falling, partial curve, poor fit] |  |  | 
5 | CC1(C)CCC(CN2CCN(c3ccc(C(=O)NS(=O)(=O)c4ccc(NCC5CCOCC5)c([N+](=O)[O-])c4)c(Oc4cnc5[nH]ccc5c4)c3)CC2)=C(c2ccc(Cl)cc2)C1 | 15.5 µM [falling, single point] | 0.268 | 0.024 | 26.4 µM [falling, single point] | 0.313 | 26.4 µM [falling, single point] |  |  | 
6 | N[C@H](CSC(c1ccccc1)(c1ccccc1)c1ccccc1)C(=O)O | 15.5 µM [falling, partial curve, poor fit] | 0.891 | 0.171 | 4.18 µM [falling, partial curve, poor fit] | 0.733 | 20.9 µM [falling, partial curve] |  |  | 
7 | O=C(O)c1c(Cl)c(Cl)c(Cl)c(Cl)c1-c1c2cc(I)c(=O)c(I)c-2oc2c(I)c(O)c(I)cc12 | 8.71 µM [falling, partial curve] | -2.55 | -0.0359 | 6.62 µM [falling, full curve] | 0.699 | 13.2 µM [falling, partial curve] |  |  | 
8 | CC(C)C(=O)Nc1ccc([N+](=O)[O-])c(C(F)(F)F)c1 |  | -0.348 | 0.0897 | 2.96 µM [falling, partial curve, poor fit] | -0.758 | 4.18 µM [falling, full curve] | 0.0692 µM [falling, full curve, poor fit] | 0.0251 µM [falling, full curve, poor fit] | 15.8% and 10.5%
9 | Cc1ccc(C(=O)Nc2cccc(C(F)(F)F)c2)cc1Nc1nc(-c2cccnc2)nc2c1cnn2C |  | -0.199 | -0.769 | 10.5 µM [falling, partial curve] | -0.706 | 8.33 µM [falling, full curve] | 7.76 µM [falling, single point] |  | 
10 | CCCCc1ccc(NS(=O)(=O)c2ccc(C)c(C(=O)N3CCN(c4cccc(C)c4C)CC3)c2)cc1 |  | 0.291 | 0.694 | 14.8 µM [falling, partial curve] | 0.417 | 20.9 µM [falling, single point] | 25.1 µM [falling, partial curve, poor fit] |  | 
11 | Cc1cc(-c2ncc(CC(=O)Nc3ccc(-c4cnccn4)cn3)cc2C)ccn1 |  | 0.219 | 0.206 | 14.8 µM [falling, partial curve] | -0.209 | 20.9 µM [falling, partial curve] | 7.76 µM [falling, partial curve] |  | 
12 | NC1(C(=O)N[C@@H](CCO)c2ccc(Cl)cc2)CCN(c2ncnc3[nH]ccc23)CC1 |  | 0.63 | 1.61 | 0.469 µM [falling, partial curve] | 0.599 | 20.9 µM [falling, partial curve] | 15.5 µM [falling, partial curve, poor fit] |  | 
13 | COc1ccc(-c2cc3nccn3c(Nc3ncccc3C(N)=O)n2)cc1OC | 0.0039 µM [rising, full curve, poor fit] | 0.134 | 0.828 | 3.72 µM [falling, full curve] | 0.121 | 2.96 µM [falling, full curve] |  |  | 
14 | COc1ccc(C[C@@H](C)[C@@H](C)Cc2ccc(OC)c(OC)c2)cc1OC |  | -0.531 | -1 | 0.743 µM [falling, full curve] | -0.082 | 1.87 µM [falling, full curve] | 12.3 µM [falling, partial curve, poor fit] |  | 
